Results from the supplement of paper PMC4967469.

Legend:
Test in all cases: Viability of human cancer cell lines after 72 h of drug (GDSC screen)
JQ1 = compound: Cc1sc2c(c1C)C(c1ccc(Cl)cc1)=N[C@@H](CC(=O)OC(C)(C)C)c1nnc(C)n1-2 [JQ1]
Description: (§1)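 Human cancer cell lines in 384-well plates, medium with 10% serum, drug for 72 h over a 256-fold dose range (nine 2-fold or five 4-fold steps up to the top dose). Adherent lines were fixed and stained with the nucleic acid dye Syto60, suspension lines read with resazurin; signal relative to control wells, capped at 0 and 100%. One two-parameter sigmoid per drug and line, fitted in a mixed model over all curves with the slope shared within a line.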

YM155 = compound: COCC[n+]1c2c(n(Cc3cnccn3)c1C)C(=O)c1ccccc1C2=O [YM155]; details: top dose 5.12 µM
Description: as §1

OSI-906 = compound: C[C@]1(O)C[C@@H](c2nc(-c3ccc4ccc(-c5ccccc5)nc4c3)c3c(N)nccn32)C1 [OSI-906]; details: top dose 2.56 µM; top dose inferred
Description: as §1

Belinostat = compound: O=C(/C=C/c1cccc(S(=O)(=O)Nc2ccccc2)c1)NO [Belinostat]; details: top dose 20 µM; top dose inferred
Description: as §1

SB-715992 = compound: Cc1ccc(C(=O)N(CCCN)[C@@H](c2nc3cc(Cl)ccc3c(=O)n2Cc2ccccc2)C(C)C)cc1 [SB-715992]; details: top dose 0.128 µM; top dose inferred
Description: as §1

Cyclopamine = compound: CC1=C2C[C@H]3[C@@H](CC=C4C[C@@H](O)CC[C@@]43C)[C@@H]2CC[C@]12O[C@@H]1C[C@H](C)CN[C@H]1[C@H]2C [Cyclopamine]; details: top dose 16 µM; top dose inferred
Description: as §1

FTI-277 = compound: COC(=O)[C@H](CCSC)NC(=O)c1ccc(NC[C@@H](N)CS)cc1-c1ccccc1 [FTI-277]; details: top dose 1.024 µM; top dose inferred
Description: as §1

CGP-60474 = compound: OCCCNc1cc(-c2ccnc(Nc3cccc(Cl)c3)n2)ccn1 [CGP-60474]; details: top dose 0.256 µM; top dose inferred
Description: as §1

NSC-207895 = compound: CN1CCN(c2ccc([N+](=O)[O-])c3no[n+]([O-])c23)CC1 [NSC-207895]; details: top dose 20 µM; top dose inferred
Description: as §1

JNJ-26854165 = compound: c1ccc2c(CCNc3ccc(Nc4ccncc4)cc3)c[nH]c2c1 [JNJ-26854165]; details: top dose 10 µM
Description: as §1

JNK Inhibitor VIII = compound: CCOc1nc(NC(=O)Cc2cc(OC)ccc2OC)cc(N)c1C#N [JNK Inhibitor VIII]; details: top dose 10 µM; top dose inferred
Description: as §1

AMG-706 = compound: CC1(C)CNc2cc(NC(=O)c3cccnc3NCc3ccncc3)ccc21 [AMG-706]; details: top dose 2 µM; top dose inferred
Description: as §1

Docetaxel = compound: CC(=O)O[C@@]12CO[C@@H]1C[C@H](O)[C@@]1(C)C(=O)[C@H](O)C3=C(C)[C@@H](OC(=O)[C@H](O)[C@@H](NC(=O)OC(C)(C)C)c4ccccc4)C[C@@](O)([C@@H](OC(=O)c4ccccc4)[C@H]21)C3(C)C [Docetaxel]; details: top dose 0.0125 µM
Description: as §1

[1] = top dose 2.56 µM, screen: GDSC drug entry 163
[2] = top dose 1 µM, screen: GDSC drug entry 1218, top dose inferred

Cell Line	AUC (JQ1; [1])	pIC50 (JQ1; [1])	AUC (YM155)	pIC50 (YM155)	AUC (OSI-906)	pIC50 (OSI-906)	AUC (Belinostat)	pIC50 (Belinostat)	AUC (SB-715992)	pIC50 (SB-715992)	AUC (Cyclopamine)	pIC50 (Cyclopamine)	AUC (FTI-277)	pIC50 (FTI-277)	AUC (CGP-60474)	pIC50 (CGP-60474)	AUC (NSC-207895)	pIC50 (NSC-207895)	AUC (JNJ-26854165)	pIC50 (JNJ-26854165)	AUC (JQ1; [2])	pIC50 (JQ1; [2])	AUC (JNK Inhibitor VIII)	pIC50 (JNK Inhibitor VIII)	AUC (AMG-706)	pIC50 (AMG-706)	AUC (Docetaxel)	pIC50 (Docetaxel)
BC-3 (B-cell lymphoma, suspension)	0.848	5.80	0.14	7.54	0.978	< 5.59	0.315	6.39	0.702	7.56	0.979	< 4.80	0.988	< 5.99	0.753	7.11	0.971	< 4.70										
CAL-148 (breast, suspension)	0.755	6.09	0.024	> 7.70	0.99	< 5.59	0.275	6.52	0.976	< 6.89	0.988	< 4.80	0.988	< 5.99	0.799	6.95	0.989	< 4.70										
D-392MG (glioma, adherent)	0.731	6.03	0.293	7.18	0.981	< 5.59	0.624	5.51	0.952	< 6.89	0.91	< 4.80	0.963	< 5.99			0.981	< 4.70	0.894	< 5.00	0.976	< 6.00	0.97	< 5.00	0.936	< 5.70	0.832	7.91
D-542MG (glioma, adherent)	0.687	6.22	0.557	6.32	0.98	< 5.59	0.399	6.21	0.975	< 6.89	0.921	< 4.80	0.968	< 5.99			0.983	< 4.70	0.902	< 5.00	0.978	< 6.00	0.982	< 5.00	0.944	< 5.70	0.925	< 7.90
ECC12 (stomach, suspension)	0.699	6.17									0.974	< 4.80	0.956	< 5.99														
EW-12 (Ewing sarcoma, suspension)											0.969	< 4.80			0.975	< 6.59												
HCC2998 (large intestine, adherent)	0.77	6.03	0.09	> 7.70	0.752	6.08	0.587	5.67	0.807	7.20	0.988	< 4.80	0.978	< 5.99			0.973	< 4.70	0.976	< 5.00	0.985	< 6.00						
HOP-62 (lung adenocarcinoma, adherent)	0.475	6.86	0.055	> 7.70	0.956	< 5.59	0.376	6.24	0.766	7.33			0.895	< 5.99	0.623	7.46	0.944	< 4.70	0.858	5.09	0.985	< 6.00	0.971	< 5.00	0.981	< 5.70		
JSC-1 (B-cell lymphoma, suspension)	0.613	6.49	0.025	> 7.70	0.987	< 5.59	0.173	6.89	0.837	7.07			0.987	< 5.99	0.615	7.48	0.82	4.94	0.727	5.56			0.987	< 5.00	0.987	< 5.70	0.917	< 7.90
K-562 (chronic myeloid leukaemia, suspension)			0.037	> 7.70									0.988	< 5.99	0.855	6.71	0.9	< 4.70										
KLE (endometrium, adherent)	0.608	6.43	0.054	> 7.70	0.964	< 5.59	0.535	5.79	0.926	< 6.89			0.962	< 5.99	0.671	7.20	0.694	5.22	0.882	< 5.00	0.97	< 6.00	0.965	< 5.00	0.97	< 5.70	0.854	< 7.90
KOPN-8 (B-cell leukaemia, suspension)	0.814	5.94	0.017	> 7.70	0.944	< 5.59	0.135	6.94	0.628	7.77			0.99	< 5.99	0.702	7.27	0.902	4.71			0.987	< 6.00	0.99	< 5.00	0.981	< 5.70	0.795	8.31
NB12 (neuroblastoma, adherent)	0.687	6.19	0.091	> 7.70	0.975	< 5.59	0.136	> 7.11	0.886	< 6.89	0.952	< 4.80	0.972	< 5.99			0.824	4.75	0.94	< 5.00	0.961	< 6.00	0.98	< 5.00	0.979	< 5.70	0.879	< 7.90

pIC50: −log10 of the molar value. A lower IC50 marks a more sensitive line; where the fit passes the top or lowest dose, that dose stands as a limit. AUC sums up the same curve from the lowest dose to the 256-fold higher top dose; it is 1 without any effect and falls as sensitivity rises. For some of these results: Any top dose called inferred was calculated from the reported fits. For some of these results: Where an entry number is given, a second screen of the drug exists; the two often differ.
